Structures can show the parent of a compound that is named as a salt.
These molecules were tested against human, mouse or rat recombinant CSE (Homo sapiens, UniProt P32929).
UniProt P32929, sequence (P32929 whole entry, looked up): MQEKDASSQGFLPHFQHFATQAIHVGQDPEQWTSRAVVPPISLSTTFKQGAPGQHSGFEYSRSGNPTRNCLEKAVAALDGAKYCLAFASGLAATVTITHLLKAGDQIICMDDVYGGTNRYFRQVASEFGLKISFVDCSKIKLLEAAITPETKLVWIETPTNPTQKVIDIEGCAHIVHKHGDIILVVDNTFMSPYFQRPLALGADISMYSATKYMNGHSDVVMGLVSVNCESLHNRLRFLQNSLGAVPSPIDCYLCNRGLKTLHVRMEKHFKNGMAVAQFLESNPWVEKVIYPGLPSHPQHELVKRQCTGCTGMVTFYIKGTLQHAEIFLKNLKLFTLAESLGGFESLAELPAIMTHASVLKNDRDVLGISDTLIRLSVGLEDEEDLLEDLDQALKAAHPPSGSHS

SMILES | IC50 [µM]
O=[N+]([O-])c1ccc(/C=N/Nc2nnn[nH]2)cc1 [(E)-5-(2-(4-nitrobenzylidene)hydrazinyl)-1H-tetrazole] | > 100
CN(C)CCN(N)c1nnn[nH]1 [Example 2, 2-(1-(1H-tetrazol-5-yl)hydrazinyl)-N,N-dimethylethanamine] | > 100
COCCCN(N)c1nnn[nH]1 [Example 5] | > 100
NN(Cc1ccccc1)c1nnn[nH]1 [Example 8] | > 100
CC(C)CN(N)c1nnn[nH]1 [Example 10] | > 100
CNCCCN(N)c1nnn[nH]1 [Example 15] | < 10
Clc1ccc(/C=N/Nc2nnn[nH]2)c(Cl)c1 [Example 19] | > 100
C/C(=N\Nc1nnn[nH]1)c1ccc(N(C)C)cc1 [Example 22] | < 10
C1CCC(=NNc2nnn[nH]2)CC1 [Example 23] | < 10
C1CCC(=NNc2nnn[nH]2)C1 [Example 24] | < 10
CC/C(C)=N/Nc1nnn[nH]1 [Example 25] | < 10
CN(C)c1ccc(C(=O)C/C=N/Nc2nnn[nH]2)cc1 [Example 26, (E)-3-(2-(1H-tetrazol-5-yl)hydrazono)-1-(4-(dimethylamino)phenyl)propan-1-one] | < 10
CC(C)=NN(C)c1nnn[nH]1 [Example 28, 5-(1-methyl-2-(propan-2-ylidene)hydrazinyl)-1H-tetrazole] | < 10
CCN(N)c1ncn[nH]1 [Example 31, 5-(1-ethylhydrazinyl)-1H-1,2,4-triazole hydrochloride] | > 100
CCN(N)C(=O)c1nnn[nH]1 [Example 33, N-ethyl-1H-tetrazole-5-carbohydrazide] | > 100
CCN(N)C(=O)Nc1nnn[nH]1 [Example 34, 1-ethyl-N-(1H-tetrazol-5-yl)hydrazinecarboxamide] | > 100
CCN(N)C(=O)NS(=O)(=O)c1ccccc1 [Example 35, 1-ethyl-N-(phenylsulfonyl)hydrazinecarboxamide] | > 100

From patent US9725426B2, “Cystathionine-γ-lyase (CSE) inhibitors” (SOVA PHARMACEUTICALS, INC., priority 2012, dated 2017)
